Screen size: about 240,000 compounds; about 20 (0.008%) were called active. The shares of active, inactive and inconclusive entries below differ from those in the screen. Calls follow the shape of the dose curve; as a rule, active = well fitted inhibition curve with a large enough effect; inconclusive = small, poorly fitted or top-dose-only effect, or effect the other way; inactive = flat fitted curve, though single readings scatter. Potencies of inconclusive entries are left out as doubtful fits.
Biological target: Alpha-galactosidase A (Homo sapiens) (UniProt P06280)
Experiment: qHTS Assay for Inhibitors and Activators of Human alpha-Galactosidase From Spleen Homogenate;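 as to activity change, negative = inhibition: 0% = enzyme with vehicle and -100% = no enzyme basal signal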
Settings: 4MU-alpha-Gal fluorescence, 40 min; activity change, negative = inhibition: at 80 µM (top of the series)
Summary of the method: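 Fluorogenic readout (Ex 365/Em 440 nm) of 4-methylumbelliferone released from 1 mM 4-MU-alpha-galactoside by spleen homogenate, 40 min at 37C, pH 5.0. Data normalized to no-enzyme and enzyme controls; Hill-equation AC50 from compound titrations.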
Potency is read from the fitted curve at half-maximal effect; tags tell the direction and shape of the fitted curve.

Sequence of UniProt P06280 (P06280 whole entry, looked up): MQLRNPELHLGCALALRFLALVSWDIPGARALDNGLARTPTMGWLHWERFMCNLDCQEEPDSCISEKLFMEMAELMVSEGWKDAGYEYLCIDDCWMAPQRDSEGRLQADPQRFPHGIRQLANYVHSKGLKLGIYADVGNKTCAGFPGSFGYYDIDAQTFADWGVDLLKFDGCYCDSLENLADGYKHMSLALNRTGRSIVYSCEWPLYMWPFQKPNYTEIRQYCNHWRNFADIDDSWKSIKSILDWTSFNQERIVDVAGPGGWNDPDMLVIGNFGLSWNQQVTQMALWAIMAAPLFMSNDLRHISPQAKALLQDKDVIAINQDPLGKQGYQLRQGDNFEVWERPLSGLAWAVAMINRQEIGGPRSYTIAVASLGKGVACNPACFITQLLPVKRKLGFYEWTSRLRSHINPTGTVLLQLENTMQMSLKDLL

SMILES | Potency | activity change, negative = inhibition
CC(C)(C)c1ccc(C(=O)NCCn2c(N)c(C#N)c3nc4ccccc4nc32)cc1 | inconclusive [activator, partial curve] | 
CCN(CC)c1ccc(/C=N/NC(=O)c2ccco2)c(O)c1 |  | inactive: -5.03%
COc1ccc2c(Cl)c(-c3nnc4n3CCCCC4)sc2c1 |  | inactive: 2.61%
CCOC(=O)c1cc2c(=O)n3cccc(C)c3nc2n(C)c1=N | inconclusive [activator, partial curve] | 
CCCn1c(=NC(C)=O)c(C(=O)OCC)cc2c(=O)n3ccccc3nc21 | inconclusive [activator, partial curve] | 
CC(=O)N/C(=N/c1nc(C)cc(C)n1)Nc1ccc(NC(C)=O)cc1 | inconclusive [inhibitor, single point] | 
CCCc1cc(-c2[nH]ncc2-c2ccc3c(c2)OCCCO3)c(O)cc1OC |  | inactive: 12.8%
CCSc1ccc2cc(OC)ccc2[n+]1CC |  | inactive: 21%
CCc1ccc2c(CSc3nnnn3C)cc(=O)oc2c1 | inconclusive [inhibitor, partial curve, poor fit] | 
CC1CCc2cc(F)ccc2N1C(=O)CSc1nnc(-c2cccs2)n1C (stereo not given) | inconclusive [inhibitor, single point] | 
Cc1c(C(c2cc3c(cc2Br)OCO3)c2c(C)n(C)n(-c3ccccc3)c2=O)c(=O)n(-c2ccccc2)n1C | inconclusive [activator, single point] | 
Cn1cc(CN2CCN(c3ccccc3)CC2)c2ccccc21 | inconclusive [activator, single point] | 
CCn1c(CC(=O)Nc2cccc(OC)c2)nnc1SCC(=O)N1CCN(c2ccccc2)CC1 |  | inactive: 2.83%
N#Cc1c(-c2ccccc2Cl)c2c([nH]c1=O)-c1ccccc1OC2 | inconclusive [activator, partial curve] | 
Cc1ccc2nc(NCc3ccco3)c(C=NCc3ccco3)c(=O)n2c1 | inconclusive [activator, full curve, poor fit] | 
CCOC(=O)c1cc2c(=O)n3cccc(C)c3nc2n(Cc2ccco2)c1=NC(=O)c1ccccc1 | inconclusive [activator, partial curve] | 
Oc1ccccc1C=Nc1ccccc1-c1nc2ccccc2[nH]1 | inconclusive [activator, single point] | 
Cc1[nH]c(C)c(Cl)c(=O)c1Cl |  | inactive: 7.27%
CN1c2ccccc2-c2nc3ccccc3n2C1c1ccco1 (stereo not given) | inconclusive [activator, partial curve] | 
Cc1ccc(C)n1-c1nccc(-c2cccs2)n1 | inconclusive [activator, partial curve] | 
O[N+]1=CC=CCC1=S.On1ccccc1=S.[Zn] |  | inactive: -4.71%
COc1cc([N+](=O)[O-])ccc1NC(=O)/C=C/C(=O)O | inconclusive [inhibitor, single point] | 
c1cncc(CNc2ccnc(-c3cccnc3)n2)c1 |  | inactive: 11.7%
CCN(CC)c1ccc(/C=N\NC(N)=O)cc1 | inconclusive [activator, single point] | 

SMILES | Potency | activity change, negative = inhibition
C/C=C/OC(=O)NC(c1ccccc1)[C@]1(C(C)=O)CCOC1=O (stereo not given in full) |  | inactive: 8.42% [at 17.5 µM]
O=C(C1CCCO1)N1CCN(C(=S)Nc2ccc(Cl)cc2)CC1 (stereo not given) | inconclusive [inhibitor, single point] | 
Cn1c(=O)c(-c2ccccc2)nc2cnc(N3CCNCC3)nc21 | inconclusive [activator, single point] | 
CN(C)c1cc(NC(=O)CN2CCOCC2)c2ccccc2n1 | inconclusive [activator, single point] | 
CCCC1OC23CCCCC2C(C#N)(C(=N)O3)C1(C#N)C#N (stereo not given) | inconclusive [activator, partial curve] | 
CCCS(=O)(=O)N1CCN(c2ccccc2F)CC1 | inconclusive [inhibitor, single point] | 
O=S(=O)(c1ccc(Br)s1)N1CCc2ccccc2C1 |  | inactive: -22.2%
CCc1ccc(OCC(=O)Nc2ccc(-c3cc4ccccc4oc3=O)c(OC)c2)cc1 | inconclusive [activator, single point] | 
CC(CCc1ccccc1)NC(=O)CSc1nccc(=O)[nH]1 (stereo not given) | inconclusive [activator, single point] | 
O=C(COc1ccc(-c2nnco2)cc1)N1CCN(S(=O)(=O)c2ccc3ccccc3c2)CC1 |  | inactive: 4.76%
CC(C)c1cc(=O)oc2c3c4c(cc12)CCCN4CCC3 | inconclusive [activator, single point] | 
CCCCC[n+]1ccn(-c2nc3ccccc3nc2[N-]S(=O)(=O)c2ccccc2)c1 | inconclusive [activator, single point] | 
COc1ccc(N2C(=O)CCC(C(=O)NCc3ccccn3)C2c2ccc(F)cc2)cc1 (stereo not given) |  | inactive: 3.92%
COC(=O)C1CC1[C@H](NC(=O)c1cccnc1)c1ccccc1 (stereo not given in full) |  | inactive: -5.9%
CCCCCCn1cnc2c(c1=O)c1nc3ccccc3nc1n2/N=C/c1ccco1 | inconclusive [inhibitor, single point] | 
O=C(NC12CC3CC(CC(C3)C1)C2)c1ccc(COc2ccc(Cl)cc2[N+](=O)[O-])o1 | inconclusive [activator, partial curve] | 
O=S(=O)(c1ccc(N2CCC(c3ccc(Cl)cc3)=N2)cc1)N(CCO)CCO | inconclusive [activator, partial curve] | 
Cc1cc(NCC2CCCO2)n2c(nc3ccccc32)c1C#N (stereo not given) | inconclusive [activator, single point] | 
CN1CC(c2ccccc2Cl)C2(COc3ccccc3C2=O)C12C(=O)Nc1ccccc12 (stereo not given) |  | inactive: 14.1%
Cc1nc2ccc(NC(=O)NCCCO)cc2s1 | inconclusive [inhibitor, full curve, poor fit] | 
Nc1ncnc(N2CCc3ccccc32)c1[N+](=O)[O-] |  | inactive: -1.06%
CCCCN(CCCC)S(=O)(=O)c1ccc(OC)c2ncccc12 | inconclusive [inhibitor, single point] | 
COC(=O)[C@@]1(Cc2ccccc2)[C@H]2c3cc(C(=O)N(C)C)n(Cc4ccc(S(C)(=O)=O)cc4)c3C[C@H]2CN1C(=O)c1ccccc1 |  | inactive: 7.19%
CCCCCCCCC/C=C/CC1CC(=O)OC1=O (stereo not given) |  | inactive: -4.09%

SMILES | Potency | activity change, negative = inhibition
CN(c1ccccc1)S(=O)(=O)c1ccc(C(=O)Nc2nccs2)cc1 | inconclusive [activator, full curve, poor fit] | 
Cc1nc2oc3c(=O)[nH]cnc3c2c2c1COC(C)(C)C2 | inconclusive [inhibitor, full curve, poor fit] | 
Cc1cnc(CNc2ccnc(-c3cccc(NS(C)(=O)=O)c3)n2)cn1 | inconclusive [inhibitor, single point] | 
COc1ccc(-c2nc3cnc(N4CCN(C)CC4)nc3n(Cc3ccc(F)cc3)c2=O)cc1 | inconclusive [activator, partial curve] | 
c1ccc2c(NCC3CCCO3)nc(N3CCCCC3)nc2c1 (stereo not given) | inconclusive [activator, partial curve] | 
CCn1c2ccccc2c2nnc(SCC(=O)Nc3cc(C)on3)nc21 | inconclusive [inhibitor, single point] | 
O=C(COc1cccc(C(F)(F)F)c1)N1CCN(c2ccccc2O)CC1 |  | inactive: -9.69%
COc1cc(/C=C2/SC(=O)N(Cc3ccccc3Cl)C2=O)ccc1OCc1ccncc1 |  | inactive: -2.5%
Cc1ccc2nc(-c3ccc(N)cc3)sc2c1S(=O)(=O)O | inconclusive [activator, partial curve] | 
CCOC(=O)c1cc2c(=O)n3ccccc3nc2n(C(C)C)c1=NC(=O)c1ccncc1 | inconclusive [activator, partial curve] | 
O=C(/C=C/Nc1ccc(F)c(Cl)c1)c1ccco1 | inconclusive [inhibitor, partial curve] | 
Cc1ccc(S(=O)(=O)c2c(N)n(CCCN(C)C)c3nc4ccccc4nc23)cc1 | inconclusive [activator, partial curve] | 
CCNc1ncc2nc(C)c(=O)n(C)c2n1 | inconclusive [activator, partial curve] | 
Cc1cc(NCCCN2CCOCC2)n2c(nc3ccccc32)c1C#N | inconclusive [activator, partial curve] | 
Cc1nc(N2CCN(C(=O)c3ccco3)CC2)c2oc3ccccc3c2n1 |  | inactive: -1.04%
Cc1cc(NC(=O)CSc2nc3c(sc4ccccc43)c(=O)n2CCCN2CCOCC2)n[nH]1 |  | inactive: 0.86%
Cc1ccc(-c2cc(C(F)(F)F)c(C#N)c(SCCC#N)n2)o1 | inconclusive [activator, partial curve] | 
COc1cc2ccc(=O)oc2cc1OCC(O)C(C)(C)O (stereo not given) | inconclusive [activator, single point] | 
CCc1ccc(-c2nc(C(N)=O)c3[nH]c(=O)n(-c4ccccc4OC)c3n2)cc1 | inconclusive [activator, single point] | 
Cc1ccc(-c2nnc3n2CCCCC3)cc1 |  | inactive: -17.6%
N#Cc1c(N)n(CCNC(=O)c2ccc(Cl)cc2)c2nc3ccccc3nc12 | inconclusive [activator, partial curve] | 
CCN(CC)c1ccc(/C=N/NC(=O)Cc2ccc(OC)c(OC)c2)cc1 | inconclusive [activator, single point] | 
